# From PubChem BioAssay AID624418 (National Center for Advancing Translational Sciences (NCATS), 2012)
# The whole screen tested about 410,000 compounds, of which about 530 (0.13%) were called active. Inconclusive results, whose numbers are uncertain, are shown with a selection of clear calls. Calls come from the whole dose curve; as a rule, active = well fitted inhibition curve with a large enough effect; inconclusive = small, poorly fitted or top-dose-only effect, or another doubt; inactive = no such curve, though single readings can be large or run the other way. A potency beside an inconclusive call is a rough fit, not a confirmed value.
# Test: qHTS of GLP-1 Receptor Inverse Agonists: Cytotox Screen
# Details: HEK293 cAMP-luciferase reporter cells, luminescence, 24 h; activity change, negative = inhibition: at 38.3 µM (top of the series) unless noted
# Summary of the method: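 Seeding density was 200 cells/uL; after overnight-length (12 h) culture, 23 nL compounds went on for 24 h at 37 °C. Readout used a luciferase detection reagent, luminescence taken after 12 min at room temperature.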
# % is set by controls: 0 for no effect and ±100 for the full control effect; potency is the fitted concentration of half-maximal effect.
SMILES,"activity change, negative = inhibition",Potency
CC(=O)Nc1ccc(S(=O)(=O)N2CCN3CCCC3C2)cc1 (stereo not drawn),inactive: 2.01%,–
Cc1ccc(NN2C(=O)C=C(c3ccc(Cl)cc3)C2=O)cc1,–,"inconclusive: 28.2 µM [inhibitor, single point]"
Cc1ccccc1OCc1occc1C(=O)Nc1cccc(-n2cnnn2)c1,–,"inconclusive: 3.16 µM [inhibitor, partial curve, poor fit]"
Cc1ccc(-n2c(C)c([N+](=O)[O-])c3ccc(O)c(CN(C)C)c32)cc1,–,"inconclusive: 5.01 µM [inhibitor, full curve, poor fit]"
COc1ccccc1C1(CCNC(C)c2cccs2)CCOC(C(C)C)C1 (stereo not drawn),–,"inconclusive: 12.6 µM [inhibitor, single point]"
CCOC(=O)C(NC(=O)C1C(C)N1S(=O)(=O)c1ccc(C)cc1)C(=O)OCC (stereo not drawn),–,"inconclusive: 28.2 µM [inhibitor, single point]"
COc1cc2nc(N(CCCN(C)C)C(=O)c3ccc(S(=O)(=O)N(C)C4CCCCC4)cc3)sc2cc1OC,–,"inconclusive: 15.8 µM [inhibitor, single point]"
C[C@H](CO)N1C[C@H](C)[C@@H](CN(C)Cc2ccncc2)Oc2ncc(Br)cc2C1=O,–,"inconclusive: 10 µM [inhibitor, single point]"
CC(C)c1ccc(CNc2ccc([N+](=O)[O-])cn2)cc1,–,"inconclusive: 4.47 µM [inhibitor, full curve, poor fit]"
COc1ccc(CCNCc2ccc(OCc3ccccc3)cc2)cc1,–,"inconclusive: 12.6 µM [inhibitor, single point]"
C/C(=N\NC(=S)Nc1ccc(F)cc1)c1ccc2c(c1)OCCO2,–,"inconclusive: 3.55 µM [inhibitor, full curve, poor fit]"
C[C@H]1CN([C@@H](C)CO)C(=O)c2cc(Br)cnc2O[C@H]1CN(C)Cc1ccccc1C(=O)O,inactive: -17.5%,–
S=C(Nc1ccccc1)Nc1nc2ccccc2n1CCOc1ccccc1,–,"inconclusive: 28.2 µM [inhibitor, single point]"
COc1ccc(/C=C2\SC(=O)NC2=S)cc1OC,–,"inconclusive: 12.6 µM [inhibitor, single point]"
O=C(NC(=S)Nc1ccccc1N1CCCCC1)c1ccc(F)cc1Cl,–,"inconclusive: 22.4 µM [inhibitor, single point]"
O=C(Cc1c(F)cccc1Cl)N/N=C/c1cccnc1,–,"inconclusive: 28.2 µM [inhibitor, single point]"
O=C(Nc1nc2ccccc2[nH]1)c1cccc(F)c1,–,"inconclusive: 22.4 µM [inhibitor, single point]"
Cc1cc(C(=O)OCC(=O)NCc2ccco2)c(C)n1-c1ccc(F)cc1,–,"inconclusive: 1 µM [inhibitor, full curve, poor fit]"
CCCCN(C(=O)NC(=O)C1=C(N2CCOCC2)/C(=C/c2ccccc2)CC1)S(C)(=O)=O,inactive: 205%,–
O=C(NCCn1cc(SCc2ccccc2)c2ccccc21)c1c(F)cccc1F,inactive: 3.2%,–
COc1ccccc1Nc1nn2c(=O)c3ccc(C(=O)NCCc4ccccc4)cc3nc2s1,–,"inconclusive: 2.51 µM [inhibitor, full curve, poor fit]"

SMILES,"activity change, negative = inhibition",Potency
Cc1ccc(N2CCN(c3nc4ccc(C(=O)c5ccccc5)cc4n4cnnc34)CC2)c(C)c1,inactive: 8.08%,–
Cc1c(CN(C)C)c2c(n1Cc1ccccc1)C(=O)c1ccc(Br)cc1-2,–,"inconclusive: 12.6 µM [inhibitor, single point]"
O=C(NN=C(c1ccccc1)c1ccccn1)c1ccccc1,–,"inconclusive: 2.82 µM [inhibitor, full curve]"
CC(C)N1CCc2c(sc(NC(=O)CCS(=O)(=O)c3ccccc3)c2C#N)C1,inactive: 11.5%,–
CCOC(=O)c1cnc2ccc(OCC)cc2c1NCc1cccnc1,–,"inconclusive: 10 µM [inhibitor, single point]"
COC(=O)Cc1ccc(NC(=S)Nc2ccccn2)cc1,–,"inconclusive: 22.4 µM [inhibitor, single point]"
CCC1=NN2C(=N)/C(=C\c3cccn3-c3ccc(Cl)cc3)C(=O)N=C2S1,–,"inconclusive: 15.8 µM [inhibitor, single point]"
COc1ccc(S(=O)(=O)/N=C2\C=C(NS(=O)(=O)c3ccccc3)C(=O)c3ccccc32)cc1,–,"inconclusive: 10 µM [inhibitor, partial curve, poor fit]"
COc1ccc(NS(=O)(=O)c2cc(NC(=O)c3cnc(C)cn3)ccc2N2CCCCC2)cc1,–,"inconclusive: 12.6 µM [inhibitor, partial curve, poor fit]"
Cc1ccc2[nH]cc(C(=O)CN3CCC4(CC3)OCCO4)c2c1,–,"inconclusive: 28.2 µM [inhibitor, single point]"
CCOc1cccc2sc(N(CCCN(C)C)C(=O)c3ccc(S(=O)(=O)N(C)Cc4ccccc4)cc3)nc12,–,"inconclusive: 28.2 µM [inhibitor, single point]"
CCSC(=O)N1c2ccc(OC)cc2C=CC1C#N (stereo not drawn),–,"inconclusive: 0.316 µM [inhibitor, full curve, poor fit]"
Cc1[nH]c(=O)c(C(=O)/C=C/c2ccccc2F)c2c1CCCC2,–,"inconclusive: 10 µM [inhibitor, partial curve, poor fit]"
COc1cccc(NC(=S)NCCC(c2ccccc2)c2ccccc2)c1,–,"inconclusive: 28.2 µM [inhibitor, partial curve, poor fit]"
COc1cc(-c2noc(C)c2/C=C/c2ccc(N)cc2)cc(OC)c1OC,–,"inconclusive: 1.41 µM [inhibitor, full curve, poor fit]"
CCOc1c(Cl)cc(CNc2ccc3[nH]c(=O)[nH]c3c2)cc1OC,–,"inconclusive: 20 µM [inhibitor, single point]"
COC(=O)C(=Cc1ccc(-c2ccsc2C(=O)OC)o1)C(=O)OC,–,"inconclusive: 28.2 µM [inhibitor, single point]"
CN(C)/C=C/C(=O)c1ccc(N2CCN(c3ncc(C(F)(F)F)cc3Cl)CC2)cc1,inactive: -23.4%,–
COc1ccc(NC(=O)C(=O)NCC2CCCN2S(=O)(=O)c2cc(C)ccc2C)cc1 (stereo not drawn),–,"inconclusive: 5.01 µM [inhibitor, partial curve]"
Cc1ccccc1CN1CCCN(CC(=O)Nc2ccc(F)cc2)S1(=O)=O,inactive: 0.786%,–
S=c1nc2ccccc2c2nc(-c3ccccc3Br)[nH]n12,–,"inconclusive: 0.501 µM [inhibitor, full curve, poor fit]"

SMILES,"activity change, negative = inhibition",Potency
CC(C)(C)NC(=O)c1cccc(NC(=O)c2ccc(NC(=O)c3ccco3)cc2)c1,–,"inconclusive: 28.2 µM [inhibitor, single point]"
COc1ccccc1-c1ccc2c(c1)C(C)(Cc1ccc(F)c(Cl)c1)C(=O)N2 (stereo not drawn),–,"inconclusive: 12.6 µM [inhibitor, single point]"
O=C(NCCC1=CCCCC1)C1CCCN(S(=O)(=O)c2cccc3cccnc23)C1 (stereo not drawn),–,"inconclusive: 5.01 µM [inhibitor, partial curve, poor fit]"
CCOC(=O)c1c(-c2ccc(C)cc2)csc1NC(=O)CCN1CCOCC1,inactive: 5.33%,–
COc1cccc(-c2cnc3c(NC=O)cc(-c4ccc(N5CCN(C)CC5)cc4)cn23)c1,–,"inconclusive: 11.2 µM [inhibitor, partial curve, poor fit]"
CC(C(=O)O)c1ccc(N2Cc3ccccc3C2=O)cc1 (stereo not drawn),inactive: 2.26%,–
Cc1cc(C)c(S(=O)(=O)c2ccccc2)c(OC(=O)c2ccc(Cl)cc2Cl)n1,–,"inconclusive: 11.2 µM [inhibitor, partial curve, poor fit]"
COc1ccccc1NS(=O)(=O)c1ccc(N/N=C/c2ccccc2OCC(=O)O)c([N+](=O)[O-])c1,inactive: -23%,–
CCN(CC)CCOC(=O)c1ccc(NC(=O)CCCN2C(=O)/C(=C/c3cccs3)SC2=S)cc1,–,"inconclusive: 7.08 µM [inhibitor, partial curve, poor fit]"
COc1ccc(OC)c(CN2CCC(CO)(CCOc3ccccc3)CC2)c1,inactive: 1.48%,–
CN(CC(=O)Nc1cc(Cl)cc(Cl)c1)Cc1cccs1,inactive: -5.36%,–
Cc1cc(C)c(Cn2cnc3ccccc32)c(C)c1,–,"inconclusive: 10 µM [inhibitor, partial curve]"
CCN(CC)c1ccc(NC(=S)NC(=O)c2ccco2)cc1,–,"inconclusive: 20 µM [inhibitor, single point]"
CCOC(=O)c1ccc(N2C(=O)c3n[nH]c(-c4ccco4)c3C2c2ccccc2OC)cc1 (stereo not drawn),–,"inconclusive: 15.8 µM [inhibitor, partial curve, poor fit]"
COc1ccc(-c2cc(NC=O)c3ncc(-c4ccc(OC)c(OC)c4)n3c2)c(OC)c1,–,"inconclusive: 0.316 µM [inhibitor, full curve, poor fit]"
CCN1/C(=C/C=C/c2oc3ccc(-c4ccccc4)cc3[n+]2CC)Oc2ccc(-c3ccccc3)cc21,–,"inconclusive: 12.6 µM [inhibitor, partial curve, poor fit]"
COc1cccc(/C=N/NC(=O)c2c(C)nc3ccc(Br)cn23)c1O,–,"inconclusive: 0.501 µM [inhibitor, full curve, poor fit]"
O=C(COc1ccccc1Cl)c1ccc2c(c1)CCCC2,inactive: 14.1%,–
C#CCN1C=CC(=O)[C@@H](OC(=O)Nc2ccc(OC)cc2)[C@H]1c1ccccc1Br,inactive: 0.739%,–
CCCCN(CC)CCCNC(=O)c1cc2cc3ccc(OC)cc3nc2o1,–,"inconclusive: 28.2 µM [inhibitor, single point]"
Fc1ccccc1N1CCN(C(c2ccccn2)c2nnnn2C2CCCCC2)CC1 (stereo not drawn),–,"inconclusive: 4.47 µM [inhibitor, partial curve]"
